Laboratory results taken from patent US12173061B2, “Compositions and methods for treatment of chronic lung diseases” (Board of Regents, The University of Texas System, priority 2021, dated 2024).

Test system: BLM-induced pulmonary fibrosis
Experiment: BLM-induced established pulmonary fibrosis in mice, treatment d14-d21
Format: in vivo
Conditions: 1.0 U/kg BLM IT, protein 7.5 mg/kg/d IP daily for 7 days starting d14
Experimental: FIGS. 9A-9O. M9 peptide and protein mitigated BLM-induced pulmonary fibrosis. Mice exposed to saline or 1.0 U/kg BLM by intratracheal instillation were treated with or without M9 peptide HGHVDPVKTPKI (SEQ ID NO: 4) (10 mg/kg/d) and M9 protein (SEQ ID NO: 1) 7.5 mg/kg/d) via IP injection daily for 7 days starting d14 after BLM injury. FIG. 9A: Representative micro-CT images at d21 after BLM exposure. FIG. 9B: Lung volumes were measured by quantitative-CT renditions. Lung compliance (FIG. 9C) and elastance (FIG. 9D) were measured using a flexiVent system. Lung weights (FIG. 9E) and body weights (FIG. 9F) are presented as bar graphs. […] Statistical significance (*P<0.05, **P<0.01, ***P<0.001 and ****P<0.0001) was assessed by one-way ANOVA with Turkey's multiple comparison. fLfs isolated from IPF lungs treated with PBS or recombinant full length M9 (rM9^FL) protein (2 μg/ml) for 48 h in vitro were tested for pro-fibrogenic proteins (FIG. 9L). fLfs (from IPF lungs) treated with PBS or extracellular domain of rM9^FL protein (rM9^ECD) as in FIG. 9L were tested for pro-fibrogenic proteins (FIG. 9N). […]
FIGS. 10A-10K. […] FIG. 10B: Lung volumes were measured by quantitative-CT renditions. Lung compliance (FIG. 10C) and elastance (FIG. 10D) were measured using a flexiVent system. […]
FIGS. 11A-11K. […] FIG. 11B: Lung volumes were measured by quantitative-CT renditions. […]

B1: U5a^ECD: recombinant extracellular domain of U5a (SEQ ID NO: 103) (protein, listed as Homo sapiens)
chain: MAVRPGLWPALLGIVLAAWLRGSGAQQSATVANPVPGANPDLLPHFLVEPEDVYIVKNKPVLLVCKAVPATQIFFKCNGEWVRQVDHVIERSTDGSSGLPTMEVRINVSRQQVEKVFGLEEYWCQCVAWSSSGTTKSQKAYIRIAYLRKNFEQEPLAKEVSLEQGIVLPCRPPEGIPPAEVEWLRNEDLVDPSLDPNVYITREHSLVVRQAALADTANYTCVAKNIVARRRSASAAVIVYVDGSWSPWSKWSACGLDCTHWRSRECSDPAPRNGGEECQGTDLDTRNCTSDLCVHTASGPEDVALY
In the case of B1, the “BLM-induced pulmonary fibrosis (overall)” value is reported as “mitigated”.
